The supplement of paper PMC10126150
Values marked as one replicate rest on one cluster of the flow cell; about a third of the high ones do not repeat.
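Also: ATP exposure 15 min at 22 °C before imaging.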

What follows are sequences tested on ATP (assay: switch fluorescence ratio, 500 uM ATP over buffer (Cy3 cluster intensity, sum of 5 cycles each) (fold (ratio)); higher = stronger signal-on switching upon ATP binding; sequences stand for … in TCGTCGGCAGCGTCAGATGTGTATAAGAGACAGTTTTTTTTTTTTTTTTTTTTTTTTT…TC). Details: aptamer strand: ATP DNA aptamer (quencher-CACCTGGGGGAGTATTGCGGAGGAAGG + anchor), 100 nM annealed; ATP concentration: 500 uM; one replicate.
Method in brief: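 Switching-strand clusters labelled with Cy3 on a modified Illumina MiSeq flow-cell were annealed to 100 nM quencher-labelled ATP aptamer, imaged in selection buffer, and re-imaged after 15 min with 500 uM ATP at 22 °C. This was done over five cycles with NaOH stripping and re-annealing in between. The fluorescence ratio is summed target-cycle over summed buffer-cycle Cy3 intensity per cluster, averaged per switch-domain sequence, excluding clusters outside 100-1000 RFU.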
CCCTGATTGA was tested, and the switch fluorescence ratio was 0.951. With CCCTGGTGA the switch fluorescence ratio was 1.04. In the case of CCCTGGTTTT, the switch fluorescence ratio was 1.33. In the case of CCCTGTGCTT, the switch fluorescence ratio was 1.07. CCCTGTTCAC was tested, and the switch fluorescence ratio was 1.05. In the case of CCCTGTTGGG, the switch fluorescence ratio was 0.947. In the case of CCCTTAACAA, the switch fluorescence ratio was 1.11. Sequence CCCTTCGGG has a switch fluorescence ratio of 0.931. Sequence CCCTTGTTGA has a switch fluorescence ratio of 0.957. CCCTTTATTA gave a switch fluorescence ratio of 0.995. CCCTTTGCGA gave a switch fluorescence ratio of 2.24. CCGAAAGGGC was tested, and the switch fluorescence ratio was 2.09. Work on CCGAAGGGAA yielded a switch fluorescence ratio of 1.04. CCGAATACTA gave a switch fluorescence ratio of 3.37. Work on CCGAATTAGG yielded a switch fluorescence ratio of 1.05. Work on CCGACACCAG yielded a switch fluorescence ratio of 1.14. CCGACGGCTG was tested, and the switch fluorescence ratio was 1.54. In the case of CCGAGAAAGA, the switch fluorescence ratio was 1.88. Work on CCGAGAGAAC yielded a switch fluorescence ratio of 1.91. Work on CCGAGATTGT yielded a switch fluorescence ratio of 1.05. Work on CCGAGCGGTG yielded a switch fluorescence ratio of 2. CCGAGGACGG gave a switch fluorescence ratio of 1.13. CCGAGGTAGA gave a switch fluorescence ratio of 1.17. In the case of CCGATCACCG, the switch fluorescence ratio was 1.24. CCGATCGGAC showed a switch fluorescence ratio of 1.11. CCGATGAACT showed a switch fluorescence ratio of 1.49. CCGATGTATG gave a switch fluorescence ratio of 1.26. In the case of CCGATTGGGA, the switch fluorescence ratio was 1.04. For CCGCACTTCC, the switch fluorescence ratio was 1.73. With CCGCATTTAT the switch fluorescence ratio was 5.75. For CCGCCCTGGC, the switch fluorescence ratio was 1.27. CCGCCCTGTG was tested, and the switch fluorescence ratio was 2.36. Sequence CCGCCGAGAA has a switch fluorescence ratio of 2.51. For CCGCCGGCG, the switch fluorescence ratio was 1.02. CCGCCGTCCG showed a switch fluorescence ratio of 1.41. For CCGCCTTAGT, the switch fluorescence ratio was 1.68. With CCGCGGATTT the switch fluorescence ratio was 1.02. In the case of CCGCGGGAAA, the switch fluorescence ratio was 1.02. Work on CCGCGGGAAT yielded a switch fluorescence ratio of 1.3. Sequence CCGCGTATCA has a switch fluorescence ratio of 1.03. In the case of CCGCGTTGAA, the switch fluorescence ratio was 1.38. Work on CCGCTAAGGA yielded a switch fluorescence ratio of 1.25. CCGCTCGAAA gave a switch fluorescence ratio of 5.76. For CCGCTGCCGA, the switch fluorescence ratio was 1.7. CCGCTTCCG was tested, and the switch fluorescence ratio was 1.2. In the case of CCGCTTGATT, the switch fluorescence ratio was 1.17. CCGCTTGGAT gave a switch fluorescence ratio of 1.18. CCGCTTTTTG gave a switch fluorescence ratio of 1.25. With CCGGAACATT the switch fluorescence ratio was 1.28. For CCGGAAGAGT, the switch fluorescence ratio was 1.28. In the case of CCGGAAGTCG, the switch fluorescence ratio was 0.947. With CCGGACCTAT the switch fluorescence ratio was 1.14. CCGGACGTGG showed a switch fluorescence ratio of 1.08. For CCGGACTAGA, the switch fluorescence ratio was 1.07. CCGGAGAATC showed a switch fluorescence ratio of 5.19. In the case of CCGGAGAGAG, the switch fluorescence ratio was 2.31. For CCGGAGCCGA, the switch fluorescence ratio was 1.03. With CCGGATAAT the switch fluorescence ratio was 0.97. In the case of CCGGATACCG, the switch fluorescence ratio was 0.998. Work on CCGGATTGGG yielded a switch fluorescence ratio of 1.02. CCGGCAGGAA was tested, and the switch fluorescence ratio was 0.988. Sequence CCGGCTGAAA has a switch fluorescence ratio of 1.28. Work on CCGGCTTGT yielded a switch fluorescence ratio of 1.01. Sequence CCGGGAAAT has a switch fluorescence ratio of 0.995. CCGGGCAACA gave a switch fluorescence ratio of 3.63. In the case of CCGGGCCTGT, the switch fluorescence ratio was 1.02. For CCGGGCGAAG, the switch fluorescence ratio was 0.999. In the case of CCGGGGTAAA, the switch fluorescence ratio was 1.04. For CCGGGTATAC, the switch fluorescence ratio was 2.98. CCGGGTCGTC showed a switch fluorescence ratio of 1.02. With CCGGGTTGGA the switch fluorescence ratio was 1.07. CCGGTCCGTT showed a switch fluorescence ratio of 1.03. For CCGGTCGGGC, the switch fluorescence ratio was 1.03. For CCGGTGCCCC, the switch fluorescence ratio was 2.69. CCGGTGTGCG gave a switch fluorescence ratio of 0.981. In the case of CCGGTTCCAC, the switch fluorescence ratio was 1.14.
